Out of some 39,000 compounds screened, about 220 (0.56%) showed activity. Some of the results follow.
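Also: static incubation at 37 °C against the wild-type strain, values averaged over two biological replicates.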

In the test the test system is Escherichia coli K-12 BW25113. The experiment in a line: relative growth (OD600 normalised to plate interquartile mean) (fraction); higher = less growth inhibition, active = 0.2 or less. Conditions: 50 µM; LB; incubation time: overnight (16-24 h).
Regarding `C[C@@H]1CCCCO[C@H](CN(C)CC2CC2)[C@H](C)CN([C@@H](C)CO)C(=O)c2cc(NC(=O)CCC(F)(F)F)ccc2O1`, the relative growth was inactive: 1.02.

For the compound `C[C@@H]1CN([C@@H](C)CO)C(=O)c2cc(NS(=O)(=O)c3ccc(F)cc3)ccc2O[C@@H](C)CCCCO[C@@H]1CN(C)C(=O)Nc1ccc(C(F)(F)F)cc1`, the relative growth was inactive: 0.983.

With `COCC(=O)N(C)C[C@H]1Oc2cc(C#C[C@H](C)O)ccc2S(=O)(=O)N([C@H](C)CO)C[C@@H]1C`, the relative growth is inactive: 0.988. To `C[C@@H]1CN([C@@H](C)CO)C(=O)c2c(c3ccccc3n2C)-c2ccccc2CO[C@H]1CN(C)C(=O)Nc1ccccc1` belongs inactive: 1.03; to `C[C@H](CO)N1C[C@H](C)[C@@H](CN(C)CC2CC2)Oc2c(NS(=O)(=O)c3ccc(F)cc3)cccc2C1=O`, inactive: 0.984; to `C[C@@H]1CCCCO[C@H](CN(C)CC2CC2)[C@H](C)CN([C@@H](C)CO)C(=O)c2cc(NS(=O)(=O)c3ccc(Cl)cc3)ccc2O1`, inactive: 0.963. The value for `CO[C@@H]1CN(C)C(=O)c2ccc(NS(C)(=O)=O)cc2OC[C@H](C)N(C(=O)C2CCCCC2)C[C@@H]1C` was inactive: 1.02; that for `COc1ccc(S(=O)(=O)N(C)C[C@@H]2OCCCC[C@@H](C)Oc3ccc(NC(=O)NC4CCCCC4)cc3C(=O)N([C@H](C)CO)C[C@H]2C)cc1` was inactive: 1.04. As for `COc1ccc(S(=O)(=O)Nc2ccc3c(c2)C(=O)N([C@H](C)CO)C[C@@H](C)[C@H](CN(C)C(=O)Nc2ccc4c(c2)OCO4)OCCCC[C@H](C)O3)cc1`, the relative growth was inactive: 1.01.

Take `CC(C)CCCC(C)C1CCC2C3CCC4CC(O)CCC4(C)C3CCC12C` (stereo not drawn) [5alpha-CHOLESTANOL]: the relative growth is inactive: 1.06.

On to `C[C@@H](OC[C@@]1(c2ccccc2)CC[C@]2(CCC(=O)N2)CN1)c1cc(C(F)(F)F)cc(C(F)(F)F)c1`, for which the relative growth is inactive: 0.998.

With `CN(C)C(=O)C[C@H]1CC[C@@H]2[C@@H](COc3ccc(NS(=O)(=O)c4cccc(F)c4)cc3C(=O)N2C)O1`, the relative growth was inactive: 0.946. As for `CC(C)NC(=O)Nc1ccc2c(c1)CC(=O)N([C@@H](C)CO)C[C@H](C)[C@@H](CN(C)C(=O)Nc1ccc3c(c1)OCO3)O2`, the relative growth was inactive: 0.979.

Regarding `O=S(=O)(NCC[C@H]1CC[C@@H](NS(=O)(=O)c2ccccc2Cl)[C@@H](CO)O1)c1ccc(Cl)cc1`, the relative growth was inactive: 1.02. Regarding `CO[C@@H]1CN(C)C(=O)c2ccc(NC(=O)Nc3cccc(Cl)c3)cc2OC[C@@H](C)N(C(=O)Nc2c(C)noc2C)C[C@H]1C`, the relative growth is inactive: 0.998. To `COc1ccc(NC(=O)N(C)C[C@H]2OCCCC[C@@H](C)Oc3ccc(NC(=O)C4CCCCC4)cc3C(=O)N([C@H](C)CO)C[C@@H]2C)cc1` belongs inactive: 0.986; to `COc1ccc(S(=O)(=O)N(C)C[C@H]2OCCCC[C@@H](C)Oc3ccc(NC(=O)CCC(F)(F)F)cc3C(=O)N([C@@H](C)CO)C[C@H]2C)cc1`, inactive: 1.01.

Take `C[C@@H]1CCCCO[C@@H](CN(C)S(=O)(=O)c2ccc(Cl)cc2)[C@H](C)CN([C@@H](C)CO)C(=O)c2cc(NC(=O)Nc3ccc4c(c3)OCO4)ccc2O1`: the relative growth was inactive: 1.02.

For the compound `O=S(=O)(NCC[C@@H]1CC[C@@H](NS(=O)(=O)c2ccccc2Cl)[C@H](CO)O1)c1ccc(F)cc1`, the relative growth is inactive: 1.01.

As for `C[C@@H]1CCCCO[C@@H](CN(C)C(=O)Cc2ccccc2)[C@H](C)CN([C@@H](C)CO)C(=O)c2cc(NC(=O)C3CCCCC3)ccc2O1`, the relative growth was inactive: 1.

On to `COc1ccc(S(=O)(=O)Nc2ccc3c(c2)C(=O)N([C@@H](C)CO)C[C@@H](C)[C@H](CN(C)C(=O)Nc2ccc4c(c2)OCO4)OCCCC[C@@H](C)O3)cc1`, for which the relative growth was inactive: 0.982. `C[C@@H]1CN([C@@H](C)CO)C(=O)c2cc(NC(=O)Nc3ccccc3)ccc2O[C@@H](C)CCCCO[C@H]1CN(C)S(=O)(=O)c1ccccc1`: the relative growth is inactive: 1.01. To `CC(C)CC#Cc1ccc2c(c1)O[C@@H](CN(C)C(=O)Cc1ccccn1)[C@H](C)CN([C@H](C)CO)S2(=O)=O` belongs inactive: 0.955. Take `O=C1CCCCCN1`: the relative growth is inactive: 0.964.

As to `C[C@@H]1CN([C@H](C)CO)C(=O)c2cc(NC(=O)c3ccncc3)ccc2O[C@@H](C)CCCCO[C@H]1CN(C)S(=O)(=O)c1ccc(Cl)cc1`, the relative growth was inactive: 1.01. To `COc1ccc(CNC(=O)C[C@H]2C[C@H]3c4cc(NS(=O)(=O)c5ccc(F)cc5)ccc4O[C@H]3[C@H](CO)O2)cc1` belongs inactive: 1.01. Regarding `C[C@@H]1CN([C@H](C)CO)C(=O)Cc2cc(NS(C)(=O)=O)ccc2O[C@@H]1CN(C)C(=O)NC1CCCCC1`, the relative growth is inactive: 1.01. The value for `C[C@H]1CN([C@@H](C)CO)C(=O)c2cc(NC(=O)Cn3cnnn3)ccc2O[C@@H]1CN(C)Cc1ccc(C(=O)Nc2ccccc2N)cc1` was inactive: 1.01; that for `COc1ccccc1S(=O)(=O)N(C)C[C@H]1Oc2ncc(Br)cc2C(=O)N([C@H](C)CO)C[C@H]1C` was inactive: 0.975. To `C[C@@H]1CN([C@@H](C)CO)C(=O)Cc2cc(NC(=O)NC3CCCCC3)ccc2O[C@H]1CN(C)C(=O)Nc1cccc2ccccc12` belongs inactive: 1.01. To `C[C@@H]1CN([C@H](C)CO)C(=O)c2cc(N(C)C)ccc2O[C@@H](C)CCCCO[C@H]1CN(C)C(=O)Nc1cccc2ccccc12` belongs inactive: 1.03; to `O=c1cc(-c2ccccc2)sc2c1ccc1ccccc12`, inactive: 1.05. With `CN1CCN(C(=O)C[C@@H]2C[C@H]3c4cc(NC(=O)c5ccc6c(c5)OCO6)ccc4O[C@H]3[C@H](CO)O2)CC1`, the relative growth is inactive: 1.01. With `CC=Cc1ccc2n(c1=O)C[C@H]1[C@H](CO)[C@@H](C(=O)NCCC)[C@@H]2N1S(=O)(=O)c1cn(C)cn1`, the relative growth was inactive: 1.01. For `CO[C@H]1CN(C)C(=O)c2cc(NC(=O)Nc3cccc(F)c3)ccc2OC[C@@H](C)N(C(=O)Nc2c(C)noc2C)C[C@@H]1C`, the relative growth was inactive: 0.981. With `C[C@H]1CCCCO[C@H](CN(C)Cc2ccc(C(F)(F)F)cc2)[C@@H](C)CN([C@@H](C)CO)C(=O)c2cc(NC(=O)CCC(F)(F)F)ccc2O1`, the relative growth was inactive: 1.04.

On to `CN(C)CCCNC(=O)C[C@H]1CC[C@@H](NS(=O)(=O)c2ccccc2)[C@H](CO)O1`, for which the relative growth is inactive: 1.02. On to `O=C(C[C@@H]1CC[C@@H]2[C@H](COC[C@H](O)CN2S(=O)(=O)c2ccccc2Cl)O1)NCc1ccccc1Cl`, for which the relative growth was inactive: 1. For the compound `C[C@H]1CN([C@@H](C)CO)C(=O)CCCn2nncc2CO[C@H]1CN(C)C(=O)Nc1ccc2c(c1)OCO2`, the relative growth was inactive: 1.01. For the compound `O=C(C[C@@H]1CC[C@@H]2[C@H](COC[C@H](O)CN2S(=O)(=O)c2ccc(F)cc2)O1)N[C@@H]1CCN(Cc2ccccc2)C1`, the relative growth was inactive: 0.989. As for `C[C@H](CO)N1C[C@H](C)[C@H](CN(C)C(=O)C2CC2)OCc2cnnn2CCCC1=O`, the relative growth was inactive: 0.98. To `C[C@H]1CN([C@@H](C)CO)C(=O)c2cc(NC(=O)CCCN(C)C)ccc2O[C@H]1CN(C)Cc1ccc(C(=O)O)cc1` belongs inactive: 0.956; to `CO[C@H]1CN(C)C(=O)c2cc(NC(=O)Nc3ccc(Cl)cc3)ccc2OC[C@H](C)N(C(=O)Nc2c(C)noc2C)C[C@H]1C`, inactive: 0.992. For `C[C@H](CO)N1C[C@H](C)[C@H](CN(C)S(=O)(=O)c2ccccc2)Oc2ccc(NC(=O)CCCN(C)C)cc2C1=O`, the relative growth was inactive: 1.01. `C[C@H](O)C#Cc1ccc2c(c1)O[C@H](CN(C)C(=O)Nc1ccccc1)[C@@H](C)CN([C@@H](C)CO)S2(=O)=O`: the relative growth was inactive: 1. `Cc1noc(C)c1NC(=O)Nc1cccc2c1O[C@H](CN(C)Cc1ccc(Cl)c(Cl)c1)[C@@H](C)CN([C@@H](C)CO)C2=O`: the relative growth is inactive: 0.992. The value for `C[C@@H]1CN([C@@H](C)CO)C(=O)c2cc(NC(=O)Cc3ccccc3)ccc2O[C@H]1CN(C)Cc1ccc(C(=O)Nc2ccccc2N)cc1` was inactive: 1.01. To `C[C@@H]1CN([C@@H](C)CO)C(=O)c2cc(NC(=O)c3ccncc3)ccc2O[C@@H](C)CCCCO[C@@H]1CN(C)S(=O)(=O)c1ccc(Cl)cc1` belongs inactive: 1.09. Regarding `Cc1noc(C)c1S(=O)(=O)Nc1cccc2c1O[C@H](CN(C)Cc1ccc(Oc3ccccc3)cc1)[C@H](C)CN([C@H](C)CO)C2=O`, the relative growth is inactive: 1.01. Consider `C[C@@H]1CN([C@H](C)CO)C(=O)c2cc(NS(=O)(=O)c3ccc(F)cc3)ccc2O[C@H]1CN(C)S(=O)(=O)c1cccs1`, for which the relative growth is inactive: 1. As to `NCCN1CCC(c2cccs2)CC1`, the relative growth is inactive: 1.03.

Consider `C[C@@H]1CCCCO[C@H](CN(C)C(=O)C2CCCCC2)[C@@H](C)CN([C@@H](C)CO)C(=O)c2cc(NS(=O)(=O)c3ccccc3)ccc2O1`, for which the relative growth was inactive: 0.976. For the compound `C[C@@H]1CCCCO[C@@H](CN(C)Cc2ccc(C(F)(F)F)cc2)[C@@H](C)CN([C@H](C)CO)C(=O)c2cc(NC(=O)Nc3ccc(F)cc3)ccc2O1`, the relative growth was inactive: 1.

Regarding `O=C(C1=C[C@@H](c2csc3ccccc23)C[C@@H](OCc2ccc(CO)cc2)O1)N1CCN(Cc2ccc3c(c2)OCO3)CC1`, the relative growth was inactive: 1.02. With `CN(C)C(=O)[C@H]1C[C@@H]2CCN(S(C)(=O)=O)C[C@H]2O1`, the relative growth is inactive: 0.988. Regarding `CCCNC(=O)N[C@@H]1C=C[C@H](CC(=O)N2CCN(C)CC2)O[C@@H]1CO`, the relative growth was inactive: 0.989. The value for `COc1ccccc1CNC(=O)C[C@H]1C[C@@H]2c3cc(NC(=O)c4ccc5c(c4)OCO5)ccc3O[C@@H]2[C@H](CO)O1` was inactive: 1; that for `COC(=O)C[C@@H]1C=C[C@@H](N)[C@H](CO)O1` was inactive: 0.989.

Source of the values: the supplement of paper PMC9446081.
